Reference: the RNAGym collection of RNA variant scans (doi:10.1073/pnas.2313332121)
Variants at the floor of the assay are shown more often than the library holds them.

B1: TPR 5TU (parent)
chain: GGAUCUUCUCGAUCUAACAAAAAAGACAAAUCUGCCACAAAGCUUGAGAGCAUCUUCGGAUGCAGAGGCGGCAGCCUUCGGUGGCGCGAUAGCGCCAACGUUCUCAACUAUGACACGCAAAACGCGUGCUCCGUUGAAUGGAGUUUAUCAUG

Variants of: B1
Assay: polymerase ribozyme fitness, log enrichment relative to wild type (log ratio); higher = more active; in vitro selection for triplet polymerase activity
Summary of the method: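 For each subunit of a heterodimeric triplet polymerase ribozyme, a mutant library was built by PCR and transcribed, then taken through a single in vitro selection round in triplicate. Selection involved annealing to a biotinylated primer, the partner subunit and triplets, incubation frozen at −7 °C, gel excision of extended constructs, capture on streptavidin beads and RT-PCR. Genotypes were retained after Illumina sequencing of inputs and outputs only with ≥10 input reads and ≥1 read in each output. Fitness is defined as the logarithm of a genotype's enrichment relative to wild-type enrichment, using inverse-variance-weighted averages across replicates, with the logarithm taken to base 2.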
For U90G G126U A147U, the “polymerase ribozyme fitness (log ratio)” value was -3.95.
For A91C, the “polymerase ribozyme fitness (log ratio)” value was no more than -4.2.
In the case of A91C A97G U109C A142C, the “polymerase ribozyme fitness (log ratio)” value is reported as no more than -4.2.
For A91C A142C, the “polymerase ribozyme fitness (log ratio)” value was no more than -4.2.
With A91C A150G the “polymerase ribozyme fitness (log ratio)” value was no more than -4.2.
For A91C C108U A113C C118G U130C, the “polymerase ribozyme fitness (log ratio)” value was no more than -4.2.
With A91C C125A U135C the “polymerase ribozyme fitness (log ratio)” value was no more than -4.2.
For A91C G92A A107U G136U A147U, the “polymerase ribozyme fitness (log ratio)” value was no more than -4.2.
With A91C G152U the “polymerase ribozyme fitness (log ratio)” value was no more than -4.2.
With A91G the “polymerase ribozyme fitness (log ratio)” value was -2.77.
With A91G A120G C132U G141C the “polymerase ribozyme fitness (log ratio)” value was no more than -4.2.
With A91G A121U the “polymerase ribozyme fitness (log ratio)” value was -3.01.
For A91G A138C G140A, the “polymerase ribozyme fitness (log ratio)” value was no more than -4.2.
For A91G C95U A107G, the “polymerase ribozyme fitness (log ratio)” value was no more than -4.2.
In the case of A91G C114G C125G, the “polymerase ribozyme fitness (log ratio)” value is reported as no more than -4.2.
With A91G C149G the “polymerase ribozyme fitness (log ratio)” value was no more than -4.2.
In the case of A91G G100C, the “polymerase ribozyme fitness (log ratio)” value is reported as no more than -4.2.
With A91G G112C the “polymerase ribozyme fitness (log ratio)” value was -3.76.
In the case of A91G G126A G141A, the “polymerase ribozyme fitness (log ratio)” value is reported as -3.67.
In the case of A91G U144G, the “polymerase ribozyme fitness (log ratio)” value is reported as -2.02.
With A91G U148A the “polymerase ribozyme fitness (log ratio)” value was no more than -4.2.
For A91U, the “polymerase ribozyme fitness (log ratio)” value was no more than -4.2.
With A91U A98U G117U A137C C149G the “polymerase ribozyme fitness (log ratio)” value was no more than -4.2.
With A91U A98U U135G the “polymerase ribozyme fitness (log ratio)” value was no more than -4.2.
With A91U A106C C125G G141A U151G the “polymerase ribozyme fitness (log ratio)” value was no more than -4.2.
For A91U A110U, the “polymerase ribozyme fitness (log ratio)” value was no more than -4.2.
For A91U A115U C118A C131G A138G, the “polymerase ribozyme fitness (log ratio)” value was no more than -4.2.
For A91U A119U G133C C149A, the “polymerase ribozyme fitness (log ratio)” value was no more than -4.2.
With A91U A120G the “polymerase ribozyme fitness (log ratio)” value was no more than -4.2.
With A91U A121U the “polymerase ribozyme fitness (log ratio)” value was no more than -4.2.
In the case of A91U C93A, the “polymerase ribozyme fitness (log ratio)” value is reported as no more than -4.2.
For A91U C95G, the “polymerase ribozyme fitness (log ratio)” value was no more than -4.2.
For A91U C95G C99A G152U, the “polymerase ribozyme fitness (log ratio)” value was no more than -4.2.
In the case of A91U C108U A113U C118U C149G, the “polymerase ribozyme fitness (log ratio)” value is reported as no more than -4.2.
With A91U G136U U144C the “polymerase ribozyme fitness (log ratio)” value was no more than -4.2.
In the case of A91U G141A, the “polymerase ribozyme fitness (log ratio)” value is reported as -4.05.
For A91U G143U, the “polymerase ribozyme fitness (log ratio)” value was no more than -4.2.
With G92A A113G G128C G141A the “polymerase ribozyme fitness (log ratio)” value was no more than -4.2.
For G92A C103U, the “polymerase ribozyme fitness (log ratio)” value was -2.02.
In the case of G92A C125A U127A U148G, the “polymerase ribozyme fitness (log ratio)” value is reported as no more than -4.2.
For G92A C125G G141U A147U, the “polymerase ribozyme fitness (log ratio)” value was no more than -4.2.
In the case of G92A C149A, the “polymerase ribozyme fitness (log ratio)” value is reported as no more than -4.2.
For G92A U144C A147U, the “polymerase ribozyme fitness (log ratio)” value was -3.46.
In the case of G92A U148C, the “polymerase ribozyme fitness (log ratio)” value is reported as -4.02.
With G92C A98G U102A A107G the “polymerase ribozyme fitness (log ratio)” value was no more than -4.2.
For G92C A142U, the “polymerase ribozyme fitness (log ratio)” value was -2.07.
For G92C C114G C123U G152A, the “polymerase ribozyme fitness (log ratio)” value was no more than -4.2.
With G92C U101G G117C the “polymerase ribozyme fitness (log ratio)” value was -1.52.
With G92C U102A G133C A150G the “polymerase ribozyme fitness (log ratio)” value was no more than -4.2.
With G92U A110U U146G the “polymerase ribozyme fitness (log ratio)” value was no more than -4.2.
With G92U A137G U145C the “polymerase ribozyme fitness (log ratio)” value was -1.11.
With G92U C93A G136C the “polymerase ribozyme fitness (log ratio)” value was no more than -4.2.
In the case of G92U C95A A115G A147C, the “polymerase ribozyme fitness (log ratio)” value is reported as no more than -4.2.
For G92U C96U A97U A115U A121U, the “polymerase ribozyme fitness (log ratio)” value was -2.82.
For G92U C108U C125G G140C, the “polymerase ribozyme fitness (log ratio)” value was no more than -4.2.
For G92U C123A, the “polymerase ribozyme fitness (log ratio)” value was -0.758.
In the case of G92U G112C, the “polymerase ribozyme fitness (log ratio)” value is reported as -2.95.
For G92U G124C U139A, the “polymerase ribozyme fitness (log ratio)” value was no more than -4.2.
For G92U U145A, the “polymerase ribozyme fitness (log ratio)” value was 0.602.
In the case of C93A A97U G128A, the “polymerase ribozyme fitness (log ratio)” value is reported as no more than -4.2.
With C93A A107U A110G C114U U127G the “polymerase ribozyme fitness (log ratio)” value was no more than -4.2.
In the case of C93A A110G, the “polymerase ribozyme fitness (log ratio)” value is reported as no more than -4.2.
With C93A A142C the “polymerase ribozyme fitness (log ratio)” value was -1.78.
With C93A C96U the “polymerase ribozyme fitness (log ratio)” value was -3.3.
With C93A C99G C123U G136C the “polymerase ribozyme fitness (log ratio)” value was no more than -4.2.
For C93A C116U, the “polymerase ribozyme fitness (log ratio)” value was -1.88.
For C93A C125U G133C C149G, the “polymerase ribozyme fitness (log ratio)” value was no more than -4.2.
For C93A G100C U104G, the “polymerase ribozyme fitness (log ratio)” value was no more than -4.2.
For C93A G124C U127C G133C U135A U148G, the “polymerase ribozyme fitness (log ratio)” value was no more than -4.2.
For C93A G140A, the “polymerase ribozyme fitness (log ratio)” value was -4.11.
With C93A G141A A142G the “polymerase ribozyme fitness (log ratio)” value was no more than -4.2.
With C93A U101G U139C G141C the “polymerase ribozyme fitness (log ratio)” value was -3.88.
In the case of C93A U104G, the “polymerase ribozyme fitness (log ratio)” value is reported as -2.89.
In the case of C93A U127A G133U G140U, the “polymerase ribozyme fitness (log ratio)” value is reported as no more than -4.2.
In the case of C93A U134C, the “polymerase ribozyme fitness (log ratio)” value is reported as -1.59.
With C93G A115G G141A U148C A150G the “polymerase ribozyme fitness (log ratio)” value was no more than -4.2.
With C93G A142C the “polymerase ribozyme fitness (log ratio)” value was -4.02.
In the case of C93G C131G U139G, the “polymerase ribozyme fitness (log ratio)” value is reported as no more than -4.2.
With C93G G140C G143U G152U the “polymerase ribozyme fitness (log ratio)” value was no more than -4.2.
In the case of C93G U151A, the “polymerase ribozyme fitness (log ratio)” value is reported as no more than -4.2.
With C93U A97C the “polymerase ribozyme fitness (log ratio)” value was -0.557.
In the case of C93U A97U C116A G133A, the “polymerase ribozyme fitness (log ratio)” value is reported as no more than -4.2.
For C93U A115U A120G, the “polymerase ribozyme fitness (log ratio)” value was -2.4.
